Measurements taken from the RNAGym collection of RNA variant scans (doi:10.7554/elife.90254).
Read counts are not given, so values of variants with three or more changes are uncertain.

B1: LINE1-full (parent)
chain: UACGUAGGUGGUUUUCCCCUGAUAGUGCUAAGGGGGCCUGGAAGUUUGGACUGGGCAGAGCUCAACACAGCGUGGCAAAGUGGCUGUGGCUAGACUGCCUCUCUGGAUUCCUCGUCACUCAGCAGGGCAUCUCUGAGAGAAAUGCC

Variants of: B1
Experiment: self-cleavage, relative activity (ratio to wild type); higher = more cleavage; in vitro, sequencing; the parent is a self-cleaving ribozyme

Variant	self-cleavage
UACGUAGGUGGUCUUCCCCUGUUAGUGCUAAGGGGGCCUGGAAGUUUGGACUGGGCAGAGCUCAACACAGCGUGGCAAAGUGGCUGUGGCUAGAUUGCCUCUCUGGAUUCCUCGUCACUCAGCAGGGCGUCUCUGAGAGAAAUGCC [U13C A22U C95U A129G]	0.25
UACGUAGGUGGUCUUCCCCUGUUAGUGCUAAGGGGGCCUGGAAGUUCGGUCUGGGCAGAGCUCAACACAGCGAGGCAAAGCGGCUGUGGCUAGACUGCCUCUCUGGAUUCCUCGUCACUCAGCAGGGCAUCUCUGAGAGAAAUGCC [U13C A22U U47C A50U U73A U81C]	2.41
UACGUAGGUGGUCUUCCCCUGUUAGUGCUAAGGGGGCCUGGAAGUUUGGACUGGGCAGAGCUCAACACAGCGUGGCAAAGUGGCUGUGGCUAGACUGCCUCUCUGGACUCCUCGUCACUCAGCAGGGCAUCUAUGAGAGAAAUGCC [U13C A22U U108C C133A]	1.16
UACGUAGGUGGUCUUCCCCUGAUCGUGCUAAGGGGGCCUGGAAGUUUGGACUGGGCAGAGCUCAACACAGCGUGGCAAAGUGGCUGUGGCUAGACUGCCUCUCUGGAUUCCUCGUCACUCUGCAGGGCAUCUCUGAGAGAAAUGCC [U13C A24C A121U]	1.57
UACGUAGGUGGUCUUCCCCUGAUCGUGCUAAGGGGGCCUGGAAGUUUGGACUGGGCAGAGCUCAACACAGCGGGGCAAAGUGGCUGUGGCUAGACUGCCUCUCUGGAUACCUCGUCACUCAGCAGGGCAUCUCUGAGAGAAAUGCC [U13C A24C U73G U109A]	0
UACGUAGGUGGUCUUCCCCUGAUGGUGCUAAGGGGGCCUGGGAGUUUGGACUGGGCAGAGCUCAACACAGCGUGGCAAAGUGGCUGUGGCUAGACUGCCUCUCUGGAUUCCUCGUCACUCAGCAGGGCAUCUCUGAGAGAAAUGCC [U13C A24G A42G]	1.07
UACGUAGGUGGUCUUCCCCUGAUGGUGCUAAGGGGGCCUGGAAGUUUGGACUGGGCAGAGCUCAACACAGCGUGGCAAAGUGGCUGUGGCUAGACUGCCUCUCUGGGUUCCUCGUCACUCAGCAGGGCAUCUCUGAGAGAGAUGCC [U13C A24G A107G A141G]	0.94
UACGUAGGUGGUCUUCCCCUGAUGGUGCUAAGGGGGCCUGGAAGUUUGGACUGGGCAGAGCUCAACACAGCGUGGCAAAGUGGCUGUGGCUAGACUGCCUCUCUGGACUCCUCGUCACUCAGCAGGGCAUCUCUGAGAGAAAUGCC [U13C A24G U108C]	0.84
UACGUAGGUGGUCUUCCCCUGAUGGUGCUAAGGGGGCCUGGAAGUUUGGACUGGGCAGAGCUCAACACAGCGUGGCAAAGUGGCUGUGGCUAGACUGCCUCUCUGGAUUCCACGUCACUCAGCAGGGCAUCUCUGAGAGAAAUGCC [U13C A24G U112A]	0.48
UACGUAGGUGGUCUUCCCCUGAUUGUGCUAAGGGGGCCUGGAAGUUUGGACUGGGCAGAGCUCUACACAGCGUGGCAAAGUGGCUGUGGCUAGACUGCCUCUCUGGAUUCCUCGUCACUCAGCAGGGCAUCUCUGAGAGAAAUGCC [U13C A24U A64U]	0.7
UACGUAGGUGGUCUUCCCCUGAUUGUGCUAAGGGGGCCUGGAAGUUUGGACUGGGCAGAGCUCAACACAGCGUGGCAAAGUGGCUGUGGCUAGACUGCCUCUCUGGAUUCCUCGCCACUCAGCAGGGCAUCUCUGAGAGAAAUGCC [U13C A24U U115C]	1.53
UACGUAGGUGGUCUUCCCCUGAUAGUGCUGAGGGGGCCUGGAAGUUUGGACAGGGCAGAGCUCAACACAGCGUGGCAAAGUGGCUGUGGCUAGACUGCCUCUCUGGAUUCCUCGUCACUCAGCAGGGCAUCUCUGAGAGAAAUGCC [U13C A30G U52A]	0.22
UACGUAGGUGGUCUUCCCCUGAUAGUGCUGAGGGGGCCUGGAAGUUUGGACUGGGCAGAGCUCAACACAGCGUGGCAAAGUGGCUGUGGCUAGACUGCCUCUCUGGAUCCCUCGUCACUCUGCAGGGCAUCCCUGAGAGAAAUGCC [U13C A30G U109C A121U U132C]	0.77
UACGUAGGUGGUCUUCCCCUGAUAGUGCUUAGGGGGCUUGGAAGUUUGGACUGGGCAGAGCUCAACACAGCGUGGCAAAGUGGCUGCGGCUAGACUGCCUCUCUGGAUUCCUCGUCACUCAGCAGGGCAUCUCUGGGAGGAAUGCC [U13C A30U C38U U87C A136G A140G]	0.35
UACGUAGGUGGUCUUCCCCUGAUAGUGCUAGGGGGGCCUGGAAGUUUGGACUGGGCAGAGCUCAACACAGCGUGGCAAAGUGGCUGUGGCUGGUCAGCCUCUCUGGAUUCCUCGUCACCCAGCAGGGCAUCUCUGAGAGAAAUGCC [U13C A31G A92G A94U U96A U119C]	0.66
UACGUAGGUGGUCUUCCCCUGAUAGUGCUAGGGGGGCCUGGAAGUUUGGACUGGGCAGAGCUCAACACAGCGUGGCAAAGUGGCUGUGGCUAGACUGCCUCUCUGGAUUCCUCGUCACUCAGCGGGGCAUCUCUGAGAGAAAUGCC [U13C A31G A124G]	1.2
UACGUAGGUGGUCUUCCCCUGAUAGUGCUAGGGGGGCCUGGAAGUUUGGACUGGGCAGAGCUCAACACAGCGUGGCAAAGUGGCUGGGGCUAGACUGCCUCUCUGGAUUCCUCGUCACCCAGCAGGGCAUCUCUGAGAGAAAUGCC [U13C A31G U87G U119C]	0.66
UACGUAGGUGGUCUUCCCCUGAUAGUGCUAGGGGGGCCUGGAAGUUUGGACUGGGCAGAGCUCAACACAGCGUGGCAAAGUGGCUGUGGCUAGACUGCCUCUCUGGAUUCCUCGUCACUCAGCAGGGCAUCCCUGAGAGAAAUGCC [U13C A31G U132C]	0
UACGUAGGUGGUCUUCCCCUGAUAGUGCUAUGGGGGCCUGGAAGUUUGGACUGGGCUGAGCUCAACACAGCGUGGCAAAGUGGCUGUGGCUAGACUGCCUCUCUGGAUUCCUCGUCACUCAGCAGGGCAUCUCUGAGAGAAAUGCC [U13C A31U A57U]	0.05
UACGUAGGUGGUCUUCCCCUGAUAGUGCUAUGGGGGCCUGGAAGUUUGGACUGGGCAGAGCUCAACACGGCGUGGCAAAGUGGCUGUGGCUAGACUGCCUCACUGGAUUCCUCGUCACUCGGCAGGGCAUCUCUGAGAGAAAUGCC [U13C A31U A69G U102A A121G]	0.42

Variant	self-cleavage
UACGUAGGUGGUCUUCCCCUGAUAGUGCUAUGGGGGCCAGGAAGUUUGGACUGGGCAGAGCUCAACACAGCGUGGCAAAGUGGCUGUGGCUAGACUGCCUCUCUGGAUUCCUCGUCACUCAGCAGGGCAUCUCUGAGAGAAAUGCC [U13C A31U U39A]	0.76
UACGUAGGUGGUCUUCCCCUGAUAGUGCUAAGGGGGCCUGGGAGUUUGGACUGGGCAGAGCUCAACACAGCGUGGCAAAGUGGCUGUGGCUAGACUGCCUCUCUGGAUUCCUCGUCACUCAGCAGGGCAUCUCUGAGAGAGAUGCC [U13C A42G A141G]	1.47
UACGUAGGUGGUCUUCCCCUGAUAGUGCUAAGGGGGCCUGGGAGUUUGGACUGGGCAGAGCUCAACACAGCGUGGCAAAGUGGCUGUGGUUAGACUGCCUCUCUGGAUUCCUCGUCACUCAGCAGGGCAUCUCUGAGAGAAAUGCC [U13C A42G C90U]	0.17
UACGUAGGUGGUCUUCCCCUGAUAGUGCUAAGGGGGCCUGGUAGUUUGGACUGGGCAGGGCACAACACAGCGUGGCAAAGUGGCUGUGGCUAGACUGCCUCUCUGGAUUCCUCGUCACUCAGCAGGGCAUCUCUGAGAGAAAAGCC [U13C A42U A59G U62A U143A]	0.12
UACGUAGGUGGUCUUCCCCUGAUAGUGCUAAGGGGGCCUGGUAGUUUGGACUGGGCAGAGCUCAACACAGCGUGGCAAAGUGGCUGUGGCUAGUCUGCCUCUCUGGAUUCCUCGUCACUCAGCAGGGCAUCUCUGAGAGAAAUGCC [U13C A42U A94U]	0.36
UACGUAGGUGGUCUUCCCCUGAUAGUGCUAAGGGGGCCUGGUAGUUUGGACUGGGCAGAGCUCAACACAGCGUGGCAAAGUGGCUGUGGCUAGACUGCCUCUCUGGAUUCCUCGUCACUCAGCAGGGCAUCUCUGAGAGGAAUGCC [U13C A42U A140G]	0.87
UACGUAGGUGGUCUUCCCCUGAUAGUGCUAAGGGGGCCUGGUAGUUUGGACUGGGCAGAGCUCAACACAGCGUGGCAAAGUGGCUGUGGCUAGACUGCCUCUCCGGAUUCCUCGUCACUCAGCAGGGCAUCUCUGAGAGAAAUGCC [U13C A42U U104C]	1.28
UACGUAGGUGGUCUUCCCCUGAUAGUGCUAAGGGGGCCUGGACGCUUGGACUGGGCAGAGCUCAACACAGCGUGGCAAAGUGGCUGUGGCUAGACUGCCUCUCUGGAUUCCUCGUCACUCAGCAGGGCAUCUCUGAGAGAAAUGCC [U13C A43C U45C]	1.53
UACGUAGGUGGUCUUCCCCUGAUAGUGCUAAGGGGGCCUGGAGGUUUGGACUGGGCAGAGCUCAACACAGCGUGGCAAAGUGGCUGUGGCUAGACUGCCUCUCUGGAUUCCUCGUCACUCAGCUGGGCAUCUCUGAGAGAAGUGCC [U13C A43G A124U A142G]	1.74
UACGUAGGUGGUCUUCCCCUGAUAGUGCUAAGGGGGCCUGGAGGUUUGGACUGGGCAGAGCUCAACACAGCGUGGCAAAGUGGCUGUGGCUAGACUGCCUCUCUGGAUUCCUCGUCACUCAGCAGGGCGUCUCUGAGAGAAAUGCC [U13C A43G A129G]	2.7
UACGUAGGUGGUCUUCCCCUGAUAGUGCUAAGGGGGCCUGGAGGUUUGGACUGGGCAGAGCUCAACACAGCGUGGCAAAGUGGCUGUGGCUAGACUGCCUCACUGGAUUCCUCGUCACUCAGCAGGGCAUCUCUGAGAGAAAUGCC [U13C A43G U102A]	0.57
UACGUAGGUGGUCUUCCCCUGAUAGUGCUAAGGGGGCCUGGAUGUUAGGACUGGGCAGAGCUCAACACAGCGUGGCAAAGUGGCUGUGGCUAGACUGCCUCUCUGGAUUCCUCGUCACUCAGCAGGGCAUCUCUGAGAGAAAUGCC [U13C A43U U47A]	0.93
UACGUAGGUGGUCUUCCCCUGAUAGUGCUAAGGGGGCCUGGAAGUUUGGGCUGGGCAGAGCUCAACACAGCGUGUCAAAGUGGCUGUGGCUAGACUGCCUCUCUGGAUUCCUCGUCACUCAGCAGGGCAUCUCUGAGAGAAAUGCC [U13C A50G G75U]	0.49
UACGUAGGUGGUCUUCCCCUGAUAGUGCUAAGGGGGCCUGGAAGUUUGGGCUGGGCAGAGCCCAACACAGCGUGGCAAAGUGGCUGUGGCUAGACUGCCUCUCUGGAUUCCUCGUCACUCAGCAGAGCAUCUCUGAGUGAAAUGCC [U13C A50G U62C G126A A138U]	0
UACGUAGGUGGUCUUCCCCUGAUAGUGCUAAGGGGGCCUGGAAGUUUGGGCUGGGCAGAGCUCAACACAGCGUGGCAAAGUGGCUGCGGCUAGACUGCCUCUCUGGAUUCCUCGUCACUCAGCAGGGCAUCUCUGAGAGAAAUGCC [U13C A50G U87C]	0
UACGUAGGUGGUCUUCCCCUGAUAGUGCUAAGGGGGCCUGGAAGUUUGGGCUGGGCAGAGCUCAACACAGCGUGGCAAAGUGGCUGCGGCUAGACUGCCUCUCUGGAUUCCUCGUCACUCAGCAGGACAUCUCUGAGAUAAAUGCC [U13C A50G U87C G127A G139U]	0.69
UACGUAGGUGGUCUUCCCCUGAUAGUGCUAAGGGGGCCUGGAAGUUUGGGCUGGGCAGAGCUCAACACAGCGUGGCAAAGUGGCUGUGGCUAGACUGCCUCUCUGGAUACCUCGUCACUCAGCAGGGCAUCUCUGAGAGAAAUGCC [U13C A50G U109A]	0.78
UACGUAGGUGGUCUUCCCCUGAUAGUGCUAAGGGGGCCUGGAAGUUUGGUCUGGGCAGAGCUCAACACAGCGUGGCAGAGUGGCUGUGGCUAGACUGCCUCUCUGGAUUCCUCGUCACUCAGCAGGGCAUCUCUGAGAGAAAUGCC [U13C A50U A78G]	0.62
UACGUAGGUGGUCUUCCCCUGAUAGUGCUAAGGGGGCCUGGAAGUUUGGUCUGGGCAGAGCUCAACACAGCGUGGCAAAGUGGCUGUGGCUAGACUGCCUCUCUGGAUUCCUCGUCACUCAGCAGGGCGUCUCUGAGAGUAAUGCC [U13C A50U A129G A140U]	1
